# Measurements taken from the supplement of paper PMC8728848.
# The list shows a part of the results.
# What was measured:
# Assay in all cases: glycan array binding signal (z-score within array); higher = stronger binding
# Conditions in all cases: glycan notation: IUPAC condensed, linker removed
# [1] = molecular target: Neu5Ac(a2-3)Gal(b1-3)GlcNAc6S
# How it was run: (§1)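 The binding signal is a Z-score computed within each array. Data were drawn from 3228 arrays in the Consortium for Functional Glycomics database, restricted to those with a known protein sequence. Scores were averaged over arrays of the same protein sequence at different concentrations or buffers, and over linkers, and negative values can be taken as non-binding.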
# [2] = molecular target: Neu5Ac(a2-3)Gal(b1-3)[Fuc(a1-4)]GlcNAc
# How it was run: as §1
# [3] = molecular target: Neu5Ac(a2-3)Gal(b1-3)[Fuc(a1-4)]GlcNAc(b1-3)Gal(b1-3)[Fuc(a1-4)]GlcNAc
# How it was run: as §1
# [4] = molecular target: Neu5Ac(a2-3)Gal(b1-3)[Fuc(a1-4)]GlcNAc(b1-3)Gal(b1-4)[Fuc(a1-3)]GlcNAc
# How it was run: as §1
# [5] = molecular target: Neu5Ac(a2-3)Gal(b1-3)[GlcNAc(b1-6)]GalNAc
# How it was run: as §1
# [6] = molecular target: Neu5Ac(a2-3)Gal(b1-3)[Neu5Ac(a2-6)]GalNAc
# How it was run: as §1
# [7] = molecular target: Neu5Ac(a2-3)Gal(b1-3)[Neu5Ac(a2-6)]GlcNAc(b1-3)[Fuc(a1-3)[Gal(b1-4)]GlcNAc(b1-6)]Gal(b1-4)Glc
# How it was run: as §1
# [8] = molecular target: Neu5Ac(a2-3)Gal(b1-3)]Neu5Ac(a2-3)Gal(b1-4)]GlcNAc
# How it was run: as §1
# Neu5Ac(a2-3)Gal(b1-4)Glc = molecular target: Neu5Ac(a2-3)Gal(b1-4)Glc
# How it was run: as §1
# [9] = molecular target: Neu5Ac(a2-3)Gal(b1-4)GlcNAc
# How it was run: as §1
# [10] = molecular target: Neu5Ac(a2-3)Gal(b1-4)GlcNAc(b1-2)Man
# How it was run: as §1
# [11] = molecular target: Neu5Ac(a2-3)Gal(b1-4)GlcNAc(b1-2)Man(a1-3)[GlcNAc(b1-4)][Neu5Ac(a2-3)Gal(b1-4)GlcNAc(b1-2)Man(a1-6)]Man(b1-4)GlcNAc(b1-4)GlcNAc
# How it was run: as §1
# [12] = molecular target: Neu5Ac(a2-3)Gal(b1-4)GlcNAc(b1-2)Man(a1-3)[Neu5Ac(a2-3)Gal(b1-4)GlcNAc(b1-2)Man(a1-6)]Man(b1-4)GlcNAc(b1-4)GlcNAc
# How it was run: as §1
# [13] = molecular target: Neu5Ac(a2-3)Gal(b1-4)GlcNAc(b1-2)Man(a1-3)[Neu5Ac(a2-3)Gal(b1-4)GlcNAc(b1-2)Man(a1-6)]Man(b1-4)GlcNAc(b1-4)[Fuc(a1-6)]GlcNAc
# How it was run: as §1
# [14] = molecular target: Neu5Ac(a2-3)Gal(b1-4)GlcNAc(b1-2)Man(a1-3)[Neu5Ac(a2-6)Gal(b1-4)GlcNAc(b1-2)Man(a1-6)]Man(b1-4)GlcNAc(b1-4)GlcNAc
# How it was run: as §1
# [15] = molecular target: Neu5Ac(a2-3)Gal(b1-4)GlcNAc(b1-2)[Neu5Ac(a2-3)Gal(b1-4)GlcNAc(b1-4)]Man(a1-3)[GlcNAc(b1-4)][Neu5Ac(a2-3)Gal(b1-4)GlcNAc(b1-2)[Neu5Ac(a2-3)Gal(b1-4)GlcNAc(b1-6)]Man(a1-6)]Man(b1-4)GlcNAc(b1-4)GlcNAc
# How it was run: as §1
# [16] = molecular target: Neu5Ac(a2-3)Gal(b1-4)GlcNAc(b1-2)[Neu5Ac(a2-3)Gal(b1-4)GlcNAc(b1-4)]Man(a1-3)[GlcNAc(b1-4)][Neu5Ac(a2-3)Gal(b1-4)GlcNAc(b1-4)Man(a1-6)]Man(b1-4)GlcNAc(b1-4)GlcNAc
# How it was run: as §1
# [17] = molecular target: Neu5Ac(a2-3)Gal(b1-4)GlcNAc(b1-2)[Neu5Ac(a2-3)Gal(b1-4)GlcNAc(b1-6)]Man(a1-6)[Neu5Ac(a2-3)Gal(b1-4)GlcNAc(b1-2)Man(a1-3)][GlcNAc(b1-4)]Man(b1-4)GlcNAc(b1-4)GlcNAc
# How it was run: as §1
# [18] = molecular target: Neu5Ac(a2-3)Gal(b1-4)GlcNAc(b1-3)Gal
# How it was run: as §1
# [19] = molecular target: Neu5Ac(a2-3)Gal(b1-4)GlcNAc(b1-3)Gal(b1-3)GlcNAc
# How it was run: as §1
# [20] = molecular target: Neu5Ac(a2-3)Gal(b1-4)GlcNAc(b1-3)Gal(b1-4)GlcNAc
# How it was run: as §1
# [21] = molecular target: Neu5Ac(a2-3)Gal(b1-4)GlcNAc(b1-3)Gal(b1-4)GlcNAc(b1-2)Man(a1-3)[Neu5Ac(a2-3)Gal(b1-4)GlcNAc(b1-3)Gal(b1-4)GlcNAc(b1-2)Man(a1-6)]Man(b1-4)GlcNAc(b1-4)GlcNAc
# How it was run: as §1
# [22] = molecular target: Neu5Ac(a2-3)Gal(b1-4)GlcNAc(b1-3)Gal(b1-4)GlcNAc(b1-3)Gal(b1-4)GlcNAc
# How it was run: as §1
# [23] = molecular target: Neu5Ac(a2-3)Gal(b1-4)GlcNAc(b1-3)Gal(b1-4)GlcNAc(b1-3)Gal(b1-4)GlcNAc(b1-2)Man(a1-3)[Neu5Ac(a2-3)Gal(b1-4)GlcNAc(b1-3)Gal(b1-4)GlcNAc(b1-3)Gal(b1-4)GlcNAc(b1-2)Man(a1-6)]GalNAc
# How it was run: as §1
# [24] = molecular target: Neu5Ac(a2-3)Gal(b1-4)GlcNAc(b1-3)Gal(b1-4)GlcNAc(b1-3)GalNAc
# How it was run: as §1
# [25] = molecular target: Neu5Ac(a2-3)Gal(b1-4)GlcNAc(b1-3)Gal(b1-4)GlcNAc(b1-3)[Neu5Ac(a2-3)Gal(b1-4)GlcNAc(b1-3)Gal(b1-4)GlcNAc(b1-6)]GalNAc
# How it was run: as §1
# [26] = molecular target: Neu5Ac(a2-3)Gal(b1-4)GlcNAc(b1-3)Gal(b1-4)GlcNAc(b1-6)[Gal(b1-3)]GalNAc
# How it was run: as §1
# [27] = molecular target: Neu5Ac(a2-3)Gal(b1-4)GlcNAc(b1-3)Gal(b1-4)[Fuc(a1-3)]GlcNAc
# How it was run: as §1
# [28] = molecular target: Neu5Ac(a2-3)Gal(b1-4)GlcNAc(b1-3)GalNAc
# How it was run: as §1
# [29] = molecular target: Neu5Ac(a2-3)Gal(b1-4)GlcNAc(b1-3)[Neu5Ac(a2-3)Gal(b1-4)GlcNAc(b1-6)]GalNAc
# How it was run: as §1
binder,measurement,setting,value
"Pa IMPa (Pseudomonas aeruginosa), Q9I5W4 (protein) MSLSTTAFPSLQGENMSRSPIPRHRALLAGFCLAGALSAQAATQEEILDAALVSGDSSQLTDSHLVALRLQQQVERIRQTRTQLLDGLYQNLSQAYDPGAASMWVLPANPDNTLPFLIGDKGRVLASLSLEAGGRGLAYGTNVLTQLSGTNAAHAPLLKRAVQWLVNGDPGAATAKDFKVSVVGVDKTAALNGLKSAGLQPADAACNALTDASCASTSKLLVLGNGASAASLSATVRARLQAGLPILFVHTNGWNQSSTGQQILAGLGLQEGPYGGNYWDKDRVPSSRTRTRSVELGGAYGQDPALVQQIVDGSWRTDYDWSKCTSYVGRTTCDDVPGLSDFSKRVDVLKGALDAYNQKAQNLFALPGTTSLRLWLLWADAVRQNIRYPMDKAADTARFQETFVADAIVGYVREAGAAQKELGSYAGQRQQSMPVSGSEETLTLTLPSAQGFTAIGRMAAPGKRLSIRIEDAGQASLAVGLNTQRIGSTRLWNTRQYDRPRFLKSPDIKLQANQSVALVSPYGGLLQLVYSGATPGQTVTVKVTGAASQPFLDIQPGEDSSQAIADFIQALDADKADWLEIRSGSVEVHAKVEKVRGSIDKDYGGDVQRFIRELNEVFIDDAYTLAGFAIPNQAKTPAIQQECAARGWDCDSETLHKLPGTQHINVDQYAQCGGGCSGNPYDQTWGLNPRGWGESHELGHNLQVNRLKVYGGRSGEISNQIFPLHKDWRVLREFGQNLDDTRVNYRNAYNLIVAGRAEADPLAGVYKRLWEDPGTYALNGERMAFYTQWVHYWADLKNDPLQGWDIWTLLYLHQRQVDKSDWDANKAALGYGTYAQRPGNSGDASSTDGNDNLLLGLSWLTQRDQRPTFALWGIRTSAAAQAQVAAYGFAEQPAFFYANNRTNEYSTVKLLDMSQGSPAWPFP",glycan array binding signal (z-score),[1],0.117
same,glycan array binding signal (z-score),[2],-0.15
same,glycan array binding signal (z-score),[3],-0.544
same,glycan array binding signal (z-score),[4],-0.405
same,glycan array binding signal (z-score),[5],0.532
same,glycan array binding signal (z-score),[6],0.005
same,glycan array binding signal (z-score),[7],-0.241
same,glycan array binding signal (z-score),[8],-0.06
same,glycan array binding signal (z-score),Neu5Ac(a2-3)Gal(b1-4)Glc,-0.167
same,glycan array binding signal (z-score),[9],-0.444
same,glycan array binding signal (z-score),[10],0.389
same,glycan array binding signal (z-score),[11],-0.598
same,glycan array binding signal (z-score),[12],-0.388
same,glycan array binding signal (z-score),[13],0.066
same,glycan array binding signal (z-score),[14],1.22
same,glycan array binding signal (z-score),[15],-0.116
same,glycan array binding signal (z-score),[16],1.01
same,glycan array binding signal (z-score),[17],-0.802
same,glycan array binding signal (z-score),[18],1.1
same,glycan array binding signal (z-score),[19],0.154
same,glycan array binding signal (z-score),[20],-0.359
same,glycan array binding signal (z-score),[21],-0.226
same,glycan array binding signal (z-score),[22],-0.124
same,glycan array binding signal (z-score),[23],0.19
same,glycan array binding signal (z-score),[24],-0.642
same,glycan array binding signal (z-score),[25],-0.462
same,glycan array binding signal (z-score),[26],0.35
same,glycan array binding signal (z-score),[27],-0.597
same,glycan array binding signal (z-score),[28],-0.307
same,glycan array binding signal (z-score),[29],0.065
